A collection of fitness landscapes (doi:10.1038/s41467-024-54723-y)
Whole data set: some 18,000 sequences, median “TetR repression strength (sort-seq, GFP reporter)” near 0.23, cut for the highest 2% near 0.68. Some of the results follow.

Target: TetR (class B, Tn10) (UniProt P04483)
Test: TetR repression strength (sort-seq, GFP reporter) (relative to tetO2 = 1); higher = stronger repression
Details: E. coli
Procedure, shortened: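 Escherichia coli SIG10-MAX cells carried a low-copy plasmid library in which eight operator positions were randomized between a constitutive promoter and sfGFP, and TetR was expressed constitutively. After 5 h of growth at 37 °C in LB with 50 µg/mL chloramphenicol, 10^6 cells were FACS-sorted into 13 fluorescence bins, and each bin was Illumina-sequenced. Repression strength was the top bin index plus one minus the read-weighted mean bin, divided by the value for the unaltered operator. Across three independent transformations, only library members with ≥30 reads in every replicate and a CV ≤0.5 were averaged.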

UniProt P04483, sequence (P04483 whole entry): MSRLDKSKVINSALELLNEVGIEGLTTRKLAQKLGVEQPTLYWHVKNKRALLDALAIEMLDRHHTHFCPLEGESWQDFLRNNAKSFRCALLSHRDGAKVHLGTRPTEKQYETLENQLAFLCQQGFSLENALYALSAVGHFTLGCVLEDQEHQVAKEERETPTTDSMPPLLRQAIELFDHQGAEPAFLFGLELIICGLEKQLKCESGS

Sequence	TetR repression strength
TCCCTTTCAGTCGTTGAGA	0.336
TCCCCGAGAGTTGGAGAGA	0.244
TCCCATACAGTGGAGGAGA	0.168
TCCCCGCGAGTTCAAGAGA	0.371
TCCCGCGTAGTTTTGGAGA	0.333
TCCCGCTGAGTTGTCGAGA	0.472
TCCCTGCAAGTACGAGAGA	0.288
TCCCCTTAAGTAGGAGAGA	0.203
TCCCCGTGAGTAGCAGAGA	0.307
TCCCGGCCAGTGGAGGAGA	0.19
TCCCGCGAAGTACAGGAGA	0.153
TCCCCTCGAGTTTACGAGA	0.347
TCCCGTCGAGTGATGGAGA	0.0117
TCCCATAGAGTTGGGGAGA	0.0498
TCCCGCGTAGTCTTGGAGA	0.301
TCCCCAAAAGTTCCAGAGA	0.366
TCCCCAGCAGTTAGGGAGA	0.453
TCCCTGTTAGTAGTCGAGA	0.299
TCCCACGAAGTCACAGAGA	0.266
TCCCGGGTAGTTTACGAGA	0.00221
TCCCCTCAAGTGAAGGAGA	0.556
TCCCCGGCAGTGGTCGAGA	0.342
TCCCTAGGAGTAAGGGAGA	0.181
TCCCGTGTAGTGGAAGAGA	0.434
TCCCTCCCAGTACGTGAGA	0.184
TCCCACGAAGTGTTAGAGA	0.159

Sequence	TetR repression strength
TCCCACTGAGTTTTGGAGA	0.63
TCCCCAGGAGTCGGCGAGA	0.237
TCCCGGGGAGTTCAGGAGA	0.0846
TCCCCGGCAGTGCCGGAGA	0.158
TCCCAGTAAGTGGGCGAGA	0.19
TCCCTGGAAGTTCAAGAGA	0.305
TCCCCGCTAGTTGTCGAGA	0.104
TCCCTTCCAGTGATCGAGA	0.579
TCCCTTGGAGTTGGGGAGA	0.309
TCCCATAGAGTAAACGAGA	0.334
TCCCAATCAGTGTGTGAGA	0.101
TCCCTGAGAGTCGAGGAGA	0.0974
TCCCGGTTAGTAAGAGAGA	0.533
TCCCAGAAAGTTGGCGAGA	0.104
TCCCCTCCAGTGGGGGAGA	0.225
TCCCTAGGAGTTCCAGAGA	0.0889
TCCCTACAAGTGGGTGAGA	0.15
TCCCAATCAGTTAGGGAGA	0.146
TCCCCTATAGTATCTGAGA	0.0425
TCCCACGCAGTCCGTGAGA	0.0239
TCCCGGCGAGTGCAGGAGA	0.252
TCCCGTGGAGTGCATGAGA	0.24
TCCCGCGGAGTCGGGGAGA	0.35
TCCCTGATAGTTAGTGAGA	0.449
TCCCGAGGAGTTGTCGAGA	0.194
TCCCTGCAAGTAATGGAGA	0.18

Sequence	TetR repression strength
TCCCGGTTAGTAAATGAGA	0.136
TCCCAACAAGTTCGAGAGA	0.128
TCCCCACCAGTGAAGGAGA	0.351
TCCCGATCAGTTCGGGAGA	0.132
TCCCGCACAGTACAGGAGA	0.482
TCCCCATCAGTAGATGAGA	0.194
TCCCATAGAGTCAGTGAGA	0.204
TCCCACTTAGTAAAGGAGA	0.268
TCCCCTAGAGTATGCGAGA	0.184
TCCCACATAGTGATTGAGA	0.181
TCCCTCCGAGTAGTAGAGA	0.124
TCCCGTCAAGTAGCAGAGA	0.252
TCCCTGGTAGTTACGGAGA	0.184
TCCCCGTAAGTGCTGGAGA	0.188
TCCCAAGAAGTACCAGAGA	0.275
TCCCGATGAGTAGCTGAGA	0.373
TCCCGCACAGTGGCGGAGA	0.261
TCCCCCTCAGTGGGAGAGA	0.161
TCCCCATTAGTCGCGGAGA	0.241
TCCCGGTAAGTGCGCGAGA	0.165
TCCCCGGTAGTTGTAGAGA	0.178
TCCCATTTAGTGGTAGAGA	0.44
TCCCTATCAGTCCCGGAGA	0.4
TCCCAGGGAGTAGGTGAGA	0.153
TCCCGACAAGTGTCAGAGA	0.022
TCCCCGATAGTTTGCGAGA	0.217

Sequence	TetR repression strength
TCCCGGCTAGTGCTCGAGA	0.149
TCCCTCTAAGTGAATGAGA	0.375
TCCCCGGCAGTCAGGGAGA	0.147
TCCCGTGAAGTGTTAGAGA	0.0416
TCCCGCTAAGTGTTAGAGA	0.276
TCCCTGAGAGTACACGAGA	0.121
TCCCTGTTAGTGGTCGAGA	0.187
TCCCGGACAGTAAACGAGA	0.207
TCCCGTGGAGTTCGCGAGA	0.134
TCCCACACAGTTTCGGAGA	0.275
TCCCGTACAGTGCGGGAGA	0.248
TCCCTTCCAGTTGTAGAGA	0.308
TCCCGGGCAGTGGCTGAGA	0.202
TCCCCGACAGTGCGGGAGA	0.277
TCCCGTTAAGTGTCGGAGA	0.238
TCCCGTAGAGTGTCCGAGA	0.239
TCCCGATTAGTATCAGAGA	0.01
TCCCGTTAAGTAAGTGAGA	0.37
TCCCCACGAGTACGCGAGA	0.425
TCCCGGAGAGTGGTCGAGA	0.162
TCCCTGGAAGTGGCCGAGA	0.462
TCCCGCACAGTTGTCGAGA	0.125
TCCCAGTCAGTGCAGGAGA	0.213
TCCCTCTGAGTAGGTGAGA	0.218
